In the supplement of paper PMC3334620:
Over roughly 33,000 sequences, “E-score (-0.5 to 0.5)” has its median near -0.032; the highest 2% begin near 0.36. The list shows a part of the results.

molecular target: T1, Sko1 (UniProt Q02100); test: PBM E-score (8-mer binding enrichment) (E-score (-0.5 to 0.5)); higher = stronger / more preferred TF binding; most listed sequences are background and not binding sites; settings: protein concentration: 200 nM; construct: GST-full length
T1 sequence: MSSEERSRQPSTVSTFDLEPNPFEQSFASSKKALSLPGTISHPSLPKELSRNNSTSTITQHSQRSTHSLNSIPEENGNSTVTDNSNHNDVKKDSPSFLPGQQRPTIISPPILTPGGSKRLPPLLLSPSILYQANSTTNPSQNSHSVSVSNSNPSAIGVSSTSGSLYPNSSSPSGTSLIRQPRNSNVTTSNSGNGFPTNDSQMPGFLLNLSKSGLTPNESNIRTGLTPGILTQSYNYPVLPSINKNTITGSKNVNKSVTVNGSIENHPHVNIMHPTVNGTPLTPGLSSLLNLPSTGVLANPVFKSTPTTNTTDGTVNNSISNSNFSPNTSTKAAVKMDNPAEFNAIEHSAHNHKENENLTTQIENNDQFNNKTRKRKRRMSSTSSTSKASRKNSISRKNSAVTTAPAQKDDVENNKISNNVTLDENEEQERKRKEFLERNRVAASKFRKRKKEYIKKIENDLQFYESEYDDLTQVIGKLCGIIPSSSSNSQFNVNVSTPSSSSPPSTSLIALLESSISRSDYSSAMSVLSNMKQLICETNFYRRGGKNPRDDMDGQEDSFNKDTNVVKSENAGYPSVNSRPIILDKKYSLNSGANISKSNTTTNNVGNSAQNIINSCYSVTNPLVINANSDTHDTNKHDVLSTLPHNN
Outline: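 Full-length yeast transcription factors or their DNA-binding domains, GST-tagged and expressed with PURExpress, were applied at about 100-200 nM to universal all-10-mer Agilent arrays. These arrays had been made double-stranded by primer extension on fresh or once-stripped slides. Detection used fluorescent anti-GST, normalisation used masliner, and E-scores for ungapped eight-base words pooled with reverse complements came from the Universal PBM Analysis Suite.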

Point of comparison: CTGCAACC, “PBM E-score” value -0.118. Against it:
- CGATCTTC — lower, -0.192
- AGATGGTC — lower, -0.139
- CAGAGTCA — higher, -0.0756
- TATTCCCA — higher, -0.0503
- CGGATCCG — lower, -0.281
- GGCCCTAA — lower, -0.259
- TATAGGGA — higher, -0.059
- AGCCGTTA — higher, 0.0376
- GCGGGTCA — lower, -0.189
- CGGGCAGC — lower, -0.332
- CACCCGCG — higher, 0.0131
- CTAGTCAG — lower, -0.163
- GCCGCGGA — lower, -0.216
- GAGACTAA — higher, 0.0459
- AGGCGACT — lower, -0.162
- CCTAAGGA — lower, -0.133
- CCCTATGC — lower, -0.169
- ACTTCGGA — higher, 0.0126
- AGAAAGCG — higher, -0.042
- ACTCCCCA — higher, -0.0377
- CCGCCCCA — higher, 0.0155
- AGTGTCTA — higher, -0.0811
- CGTAATCA — higher, 0.452
- ATGGGTAA — higher, 0.0297
- GTGGCAAC — higher, -0.0174
- CTTACTCC — higher, -0.116
- CTATAGTC — higher, 0.0578
- CAACACCG — lower, -0.177
- ACTTACAA — higher, 0.115
- AAGAGTAA — higher, 0.216
- ATTCCTCG — higher, -0.0156
- AACCGTAT — lower, -0.12
- CAAACGGC — lower, -0.358
- AAGCTGAC — higher, 0.00467
- CCGGCATC — lower, -0.267
- ATTGAAGG — lower, -0.262
- CCTGTGAC — higher, 0.156
- AGCGTAGC — higher, -0.0151
- GAGATTGC — lower, -0.147
- CCTTCGTC — higher, 0.014
- CTCCGCCC — lower, -0.254
- GCAGAGTA — higher, -0.0527
- AATAGCGG — lower, -0.18
- GAGTATTA — higher, 0.0915
- ACCGCAGT — higher, -0.112
- GAGCCCGA — higher, -0.111
- ACCGACCC — lower, -0.163
- AAAAGGAC — higher, -0.0664
- AACCACTG — higher, 0.0541
- TCGGAGCA — lower, -0.247
- CCGAACCA — lower, -0.365
- AAATGCCG — higher, 0.0751
- CCCTCTAC — lower, -0.215
- AATGATTC — higher, 0.185
- AGCCCGCA — lower, -0.28
- ACCTGAGA — higher, 0.0476
- GGACCCAC — higher, -0.106
- CACGAGCG — lower, -0.138
- GGCACAAA — higher, 0.0264
- GACAAAGA — higher, 0.157
- CAGTGTAA — higher, 0.0225
- CACTCCTC — lower, -0.168
- AGCTCCGG — lower, -0.294
- CTACGACC — lower, -0.132
- AGGAGCTC — lower, -0.125
- AACCATTA — higher, 0.213
- CCGGTCTA — lower, -0.185
- GAGGATGA — higher, 0.157
- AGACCATC — higher, -0.0601
- CAGGTCTA — higher, -0.0639
- ACGGAAGA — higher, 0.0505
- ATATTATA — higher, 0.185
- ATACACCG — lower, -0.136
- AAGCGGCC — lower, -0.407
- CGGCCTGA — lower, -0.242
- CCGTACCG — lower, -0.208
- ATTTAGAA — higher, 0.0981
- CTGGTCAA — lower, -0.228
- CTAGACCA — higher, -0.037
- AAGTCTCA — lower, -0.217
- AACGCATC — higher, 0.121
- AAAGATAG — higher, -0.0272
- CTAATGAA — higher, 0.122
- AGTTAAGC — higher, 0.12
- ACTAACAC — higher, 0.0291
- CGCGAAAA — higher, 0.067
- CCTAATCG — higher, 0.0533
- CTTTTGAA — higher, 0.0978
- CTTGGAGA — lower, -0.198
- ATAATACG — higher, 0.376
- CAGGCCCG — lower, -0.331
- ACATACTG — higher, 0.0915
- CACTCACG — higher, 0.161
- AACGGAAA — higher, 0.0735
- CGGTGCTC — higher, -0.0908
- AGTCTCGA — higher, -0.0855
- CTTCTCCC — lower, -0.155
- GTCCAGCA — lower, -0.223
- CTGATACC — lower, -0.165
- CGGCGCTC — lower, -0.204
- TCGCGTAA — higher, 0.393
- AGAAATCG — lower, -0.178
- GACTCATA — higher, 0.129
- AGTCCCCG — lower, -0.265
- AGTGAGAT — higher, 0.0689
- AATTGATC — lower, -0.18
- CATAAGGG — higher, -0.00264
- GAAACACC — higher, 0.02
- CCGCTGGC — higher, -0.113
- GCCCACTA — higher, -0.0836
- AGCCTATA — higher, 0.0406
- AGGGTCGG — lower, -0.333
- CGGGTATA — higher, 0.00491
- AGAGCACT — higher, -0.00499
- CCCTTGCG — higher, -0.0753
- ATGCGTAA — higher, 0.437
- TATACCCA — lower, -0.289
- CGCAAGTC — lower, -0.141
- AGTGTATC — higher, -0.0181
- AGAGGCGG — lower, -0.28
- ATGACCGA — higher, -0.0278
- CTACCCGA — higher, -0.103
- AAAAGTTC — higher, 0.0682
- ATTTTCTA — higher, 0.144
- GGTACCAA — higher, -0.108
- AAACTCTG — higher, 0.0632
- CGGGCACC — lower, -0.184
- CGTACTAG — higher, 0.273
- GGACCTTA — lower, -0.182
- CCCTAGGC — lower, -0.269
- TAGTGAAA — higher, 0.0372
- CACTGTCC — higher, 0.0415
- CCCAGCCG — lower, -0.243
- GTACTTTA — higher, 0.122
- AACTGATA — higher, 0.0396
- CATTTGAA — higher, 0.11
- CTCTCCGC — higher, -0.117
- CGTGCTGC — higher, 0.0131
- AATAGATG — higher, 0.266
- GTTAGTTA — higher, 0.264
- GCCGAGCC — lower, -0.375
- ACACTCGA — higher, 0.0224
- AGGTAGAA — higher, 0.00627
- AAAAGGGC — lower, -0.273
- CGAGTTGA — higher, -0.0149
- GCACGGAA — higher, -0.0734
- GCGCATCA — higher, 0.111
- GGGACTAA — lower, -0.297
- AAAGGTGC — lower, -0.179
- AGCTGCTC — lower, -0.207
- CAGCTTAC — higher, 0.019
- AAGTCCAA — higher, 0.0276
- ATCGTACC — higher, -0.0621
- GGTAGGCA — lower, -0.189
- CACGCAAA — higher, 0.26
- AATTTCCA — higher, 0.14
- TACAGGGA — lower, -0.171
- AAGCGACC — lower, -0.12
- CGTCGGAC — higher, -0.0512
- GGGGGCTA — lower, -0.299
- AGAACTGG — lower, -0.124
- AACGACCA — higher, 0.093
- AATGGCAT — higher, 0.308
- AATACTGA — higher, 0.143
- GGAGGACA — higher, -0.107
- ATGCTTCA — higher, -0.0353
- GGACCAGA — higher, -0.111
- TAAGACCA — higher, 0.0281
- ACATACGG — higher, 0.0483
- GGTCTAAA — higher, -0.00433
- CTCCACCA — lower, -0.326
